Publication PMC4336329 (PLoS ONE, 2015)
Among all 310,000 compounds or so, about 14,000 (4.5%) showed an effect of 50% or more. Effects have a minus sign here. The list shows a part of the results.

biological target: human ether-à-go-go-related gene (hERG) potassium channel (human, UniProt Q12809); assay: primary screen, population patch clamp on CHO cells stably expressing hERG
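Also: peak tail current of the secondary pulse compared with the same well before compound.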

Sequence of human ether-à-go-go-related gene (hERG) potassium channel (Q12809 whole entry, looked up): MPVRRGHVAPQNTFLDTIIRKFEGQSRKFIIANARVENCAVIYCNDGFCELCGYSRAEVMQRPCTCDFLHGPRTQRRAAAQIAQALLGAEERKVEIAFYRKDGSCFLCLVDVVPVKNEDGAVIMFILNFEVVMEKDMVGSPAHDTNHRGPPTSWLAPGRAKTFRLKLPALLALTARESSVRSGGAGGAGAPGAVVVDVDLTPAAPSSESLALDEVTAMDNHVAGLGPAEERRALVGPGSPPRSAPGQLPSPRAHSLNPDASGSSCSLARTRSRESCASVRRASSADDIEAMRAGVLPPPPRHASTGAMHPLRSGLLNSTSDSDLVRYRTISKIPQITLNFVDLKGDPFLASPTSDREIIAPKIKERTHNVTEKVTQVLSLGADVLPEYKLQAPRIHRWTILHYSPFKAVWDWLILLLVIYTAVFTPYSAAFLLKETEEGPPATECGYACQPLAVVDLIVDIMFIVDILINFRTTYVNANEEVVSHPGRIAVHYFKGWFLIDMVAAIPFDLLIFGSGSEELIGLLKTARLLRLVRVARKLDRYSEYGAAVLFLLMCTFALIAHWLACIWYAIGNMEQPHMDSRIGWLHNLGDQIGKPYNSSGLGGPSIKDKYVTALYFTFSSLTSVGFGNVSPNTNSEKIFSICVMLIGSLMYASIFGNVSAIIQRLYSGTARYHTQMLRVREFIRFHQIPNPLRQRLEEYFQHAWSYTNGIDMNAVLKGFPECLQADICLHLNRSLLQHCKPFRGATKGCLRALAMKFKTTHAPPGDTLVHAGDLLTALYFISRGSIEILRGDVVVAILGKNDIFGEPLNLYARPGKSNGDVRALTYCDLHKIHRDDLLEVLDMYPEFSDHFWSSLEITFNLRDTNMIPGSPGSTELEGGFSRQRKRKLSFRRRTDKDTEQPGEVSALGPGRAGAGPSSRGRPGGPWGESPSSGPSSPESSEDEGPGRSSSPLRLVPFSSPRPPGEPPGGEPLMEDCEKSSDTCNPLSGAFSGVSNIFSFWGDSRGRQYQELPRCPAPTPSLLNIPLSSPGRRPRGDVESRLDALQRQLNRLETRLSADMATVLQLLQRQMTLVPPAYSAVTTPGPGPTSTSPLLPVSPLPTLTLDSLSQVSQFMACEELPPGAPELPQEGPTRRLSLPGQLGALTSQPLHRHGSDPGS

Structure (SMILES)	hERG current change (%, negative = inhibition) at 10uM [%]
CC(C(=O)N1CCc2ccccc21)N1CCN(S(=O)(=O)c2cccc(C(F)(F)F)c2)CC1 (stereo not drawn)	2.4
C(=N\n1cnnc1)/c1ccc(N2CCOCC2)cc1	-7.98
Cc1cc(Oc2ccccc2)nc(OCC#N)n1	-8.22
CCC(=O)Nc1cc(=O)[nH]c2ncnn12	-6.76
CN(Cc1ccccc1)C(=O)C(=O)c1cn(CC(=O)N2CCCC2)c2ccccc12	11.2
S=c1[nH]ncn1NCc1cccc(Br)c1	12.2
COc1ccc(CN2CCOCCOCCOCC2)cc1	-58.3
Cc1ccc(NC(=O)c2oc(=O)c3ccccc3c2-c2ccccc2)c(C)c1	-7.94
CC(C)c1ccc(-n2c(O)c(/C=N/NC(=O)c3ccccc3O)c(=O)[nH]c2=S)cc1	15.3
O=C(O)c1nn(CC(=O)N2CCN(S(=O)(=O)c3ccc(Cl)cc3)CC2)c(=O)c2ccccc12	0.437
COc1cccc(NC(=O)/C=C/c2ccccc2[N+](=O)[O-])c1	-8.62
COc1cccc(NC(=O)CN2C(=O)COc3ccc(Cl)cc32)c1	-0.142
C=C(C)C(=O)Nc1cccc(C2=NOC3(C2)C[C@@H](C(N)=O)N(C(=O)c2cc([N+](=O)[O-])cc([N+](=O)[O-])c2)C3)c1 (stereo partly drawn)	-0.0222
COc1ccccc1NC(=O)c1cc2n(n1)C(C(F)(F)F)CC(c1ccc3c(c1)OCO3)N2 (stereo not drawn)	15.7
CCOC(=O)c1cc(-c2ccccc2)sc1NC(=O)CCN1C(=O)c2ccccc2C1=O	13.2
CN=c1oc2ccc(Cl)cc2cc1C(N)=O	-0.583
O=C(O)CC1OCC=C2CN3CCC45c6ccccc6NC4C1C2CC35 (stereo not drawn)	16.7
CCOc1ccccc1NC(=O)COC(=O)c1cnc(C)cn1	-5.01
O=C(OCCOc1ccccc1F)c1cccc(S(=O)(=O)N2CCOCC2)c1	12.9
COc1ccc(NC(=O)/C=C/c2cccc(F)c2)cn1	-12.7
O=C(Nc1ccc(Cl)c(Cl)c1)c1ccc2c(c1)OCO2	18
NC(=S)N/N=C/c1ccc2cccc(OCc3ccccc3)c2n1	-13.7
Cl.N=C(N)N=Nc1c(O)[nH]c2ccc(Br)cc12	1.23
Cc1ccc2c(CC(=O)OCC(=O)N(CC(C)C)c3c(N)n(Cc4ccccc4)c(=O)[nH]c3=O)coc2c1	-6.94

Structure (SMILES)	hERG current change (%, negative = inhibition) at 10uM [%]
O=C(O)COCC(=O)NC1CCN(Cc2ccccc2)CC1	12.5
Cc1nn(-c2ccccc2)c(C)c1NC(=O)COC(=O)Cc1ccccc1	3.73
O=C(NC1CCCCC1)c1cc(N2C(=O)CCC2=O)ccc1Cl	22
COc1ccc(-c2[nH]c3ccccc3c2SCCN)cc1	-13.3
CCC(C)(C)C(=O)Nc1ccc(OC)cc1[N+](=O)[O-]	-11.1
O=C(COc1ccc(S(=O)(=O)N2CCCC2)cc1)NCc1ccccn1	-8.41
CCOc1ccc(OCC)c(S(=O)(=O)NCc2cccnc2)c1	3.2
O=C(NCCc1ccncc1)C12CC3CC(CC(C3)C1)C2	-13.3
CSc1nc2c(c(-c3ccccc3)c1C#N)CCC2	1.65
ONC(=Nc1ccccc1)C(=Nc1ccccc1)NO	1.78
CC(C)NC(=O)NC(=O)COC(=O)c1cc[n+]([O-])cc1	12.2
Cc1cccc2c1NC(C)CC2C.Cl (stereo not drawn)	8.01
COc1ccc(C(=O)NCC(=O)OCn2nnc3ccccc3c2=O)cc1OC	13.5
COc1cccc(NCc2nnc(SCC(=O)NC3CCS(=O)(=O)C3)n2C2CCCCC2)c1 (stereo not drawn)	12.7
Cc1ccc(CN2CCN(Cc3ccc4cc(F)ccc4n3)CC2CCO)o1 (stereo not drawn)	-30.6
COc1ccc(NC(=O)CCNS(=O)(=O)c2cc(Br)cnc2N)cc1OC	22.2
O=C(CCn1nnc2ccccc21)OCC(=O)c1ccc([N+](=O)[O-])cc1	-0.045
Cc1cccc2cc(COC(=O)c3ccccc3)c(=O)[nH]c12	-0.867
CC(=O)NC(=S)NNC(=O)CCc1ccccc1	14.4
O=c1oc(Cl)c(Cl)c2ccccc12	11.7
Cc1ccccc1NC(=O)Cc1nc(COC(=O)c2cccc(O)c2)cs1	-17.7
COc1ccc(NC(=O)N(C2CCCCC2)C(C)c2ccco2)c(OC)c1 (stereo not drawn)	2.86
CCCS(=O)(=O)N1CCc2ccc(NC(=O)c3ccccc3Cl)cc2C1	-3.06
CCc1ccc(Nc2cnn(-c3nc4ccccc4s3)c(=O)c2Cl)cc1	5.54

Structure (SMILES)	hERG current change (%, negative = inhibition) at 10uM [%]
COC(=O)c1sccc1NS(=O)(=O)c1ccc(F)cc1F	-2.84
COC(=O)C1CCN(c2cc(Cl)nc(N)n2)CC1	6.26
CCc1c(-c2ccccc2)nc2ccccc2c1C(=O)N1CCC2(CC1)OCCO2	5.59
CC(=O)c1cccc(N=Cc2c(O)ccc3ccccc23)c1	-2.52
COc1cccc(NC(=O)c2ccccc2F)c1	-15.5
OCCN1CCOCCN(CCO)CCOCC1	4.69
COc1ccc(C(=O)NC(CC(C)C)C(=O)O)cc1OC (stereo not drawn)	7.48
S=C(Cc1ccc(Cl)cc1)N1CCOCC1	11.1
CN1C(CC(=O)Nc2ccc(Cl)cc2Cl)c2ccccc2CC1(C)C (stereo not drawn)	-76.7
Cn1cc(-c2ccccc2C(N)=O)c(=O)c2cc(Cl)ccc21	11.2
O=C(c1cc(COc2ccc(F)cc2Cl)on1)N1CCc2sccc2C1	22.7
CC(=O)Nc1ccc(NC(=O)C(C)OC(=O)CNS(=O)(=O)/C=C/c2ccc(C)cc2)cc1 (stereo not drawn)	18.9
CCC(C)Nc1nc(N)c([N+](=O)[O-])c(NCc2ccccc2)n1 (stereo not drawn)	0.654
Cc1cc(C(=O)CN2C(=O)C(=O)N(CC(C)C)C2=O)c(C)n1C1CC1	-32.4
CC(=O)c1cc(C#N)c(N2CC(C)OC(C)C2)nc1C (stereo not drawn)	-6.5
CN(Cc1ccccc1F)C(=O)CN1c2cccc3cccc(c23)S1(=O)=O	0.573
CCCCOC(=O)CCn1c(=S)oc2ccccc21	-17.4
O=C(NCC(O)CO)c1ccc2[nH]c3ccccc3c2c1 (stereo not drawn)	10.4
OCCNc1nc(Nc2ccccc2Cl)nc(N2CCCC2)n1	-13.3
CC1=C(C(=O)OC(C)(C)C)C(c2cccs2)NC(=O)N1 (stereo not drawn)	-0.0788
CN(C)c1ccc(SC#N)cc1	9.32
CCn1c(SC)nnc1-c1sc2cc(Cl)ccc2c1Cl	-55.4
CC(C)(C)NC(=O)CSc1nccn1Cc1ccccc1	-5.59
COc1ccc(NC(=O)c2ccc(OCc3c(C)noc3C)c(OC)c2)cn1	-0.917

Structure (SMILES)	hERG current change (%, negative = inhibition) at 10uM [%]
O=C(Nc1ccc(S(=O)(=O)NCC2CCCO2)cc1)C1CC(=O)N(c2ccccc2)C1 (stereo not drawn)	3.16
O=C(CSC1=NS(=O)(=O)c2cc(F)ccc2N1)NCc1ccccc1Cl	-2.68
CC(OC(=O)CN1C(=O)NC(C)(C)C1=O)C(=O)c1ccccc1 (stereo not drawn)	6.12
O=C(c1ccc2snnc2c1)N1CCOCC1	18.6
CCCC(=O)Nc1sc2c(c1C#N)CC(C)(C)NC2(C)C	5.32
O=C(Nc1ccc2oc(-c3ccc(Cl)c(Cl)c3)nc2c1)c1ncn[nH]1	1.48
C[C@H]1CC[C@@]2(O[C@H](CCO)C[C@H](O)[C@H]2O)O1	24
O=C1CSC(c2ccccc2[N+](=O)[O-])N1c1cccc(F)c1 (stereo not drawn)	-5.28
CCOC(=O)N1CCN(Cc2nc(Cc3cccc(F)c3)no2)CC1	10.6
COc1ccc(CC(=O)Nc2ccc(N3CCCCC3)cc2)cc1	10.5
CSc1ncccc1C(=O)OCC(=O)NC1CCS(=O)(=O)C1 (stereo not drawn)	9.4
CCNC(=S)NNC(=O)c1cccs1	24.5
CCOc1ccccc1N1CC(C(=O)N2CCc3ccccc3C2)CC1=O (stereo not drawn)	-19.4
CCOC(=O)C1(CC2CCCCO2)CCN(Cc2cn[nH]c2-c2cccc(F)c2)CC1 (stereo not drawn)	-53.9
CCc1ccc(NC(=S)N(CCN(C)C)C(C)c2ccncc2)cc1 (stereo not drawn)	-37.7
CN(c1ccccc1C(=O)Nc1cccc([N+](=O)[O-])c1)S(C)(=O)=O	-20
O=C(c1cccc([N+](=O)[O-])c1)N1CCCC(C(=O)N2CCCCC2)C1 (stereo not drawn)	6.74
Cc1ccc(OCC(=O)N2CCN(Cc3ccc4c(c3)OCO4)CC2)cc1C	-24.6
COc1ccc(-c2cc3ccc(OC)cc3cn2)cc1	11.9
CCC(=O)N1CCCc2ccccc21	17.6
CC(C)Oc1ccc(C2CC(=O)NC2=O)cc1 (stereo not drawn)	2.23
